According to the supplement of paper PMC8728848:
The other results are listed elsewhere or left out.

Assays:
Test in all cases: glycan array binding signal (z-score within array); higher = stronger binding
Details in all cases: glycan notation: IUPAC condensed, linker removed
[1] = target: Gal(b1-3)[Fuc(a1-4)]GlcNAc(b1-3)Gal(b1-4)Glc
Summary of the method: (§1)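 Arrays were curated from the Consortium for Functional Glycomics database, 3228 in total, and kept only where the protein sequence was available. Binding is expressed as a within-array Z-score. This score was averaged across arrays of the same protein sequence at different concentrations or buffers and across linkers, and negative values can be read as non-binding.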

[2] = target: Gal(b1-3)[Fuc(a1-4)]GlcNAc(b1-3)Gal(b1-4)[Fuc(a1-3)]Glc
Summary of the method: as §1

[3] = target: Gal(b1-3)[Fuc(a1-4)]GlcNAc(b1-3)Gal(b1-4)[Fuc(a1-3)]GlcNAc(b1-3)Gal(b1-4)Glc
Summary of the method: as §1

[4] = target: Gal(b1-3)[Fuc(a1-4)]GlcNAc(b1-3)Gal(b1-4)[Fuc(a1-3)]GlcNAc(b1-6)[Gal(b1-3)[Fuc(a1-4)]GlcNAc(b1-3)]Gal(b1-4)Glc
Summary of the method: as §1

[5] = target: Gal(b1-3)[Fuc(a1-4)]GlcNAc(b1-3)[Fuc(a1-3)[Gal(b1-4)]GlcNAc(b1-6)]Gal(b1-4)Glc
Summary of the method: as §1

[6] = target: Gal(b1-3)[Neu5Ac(a2-6)]GlcNAc(b1-3)Gal(b1-4)Glc
Summary of the method: as §1

Gal(b1-4)Glc = target: Gal(b1-4)Glc
Summary of the method: as §1

Gal(b1-4)GlcNAc = target: Gal(b1-4)GlcNAc
Summary of the method: as §1

[7] = target: Gal(b1-4)GlcNAc(b1-2)Man(a1-3)[Gal(b1-4)GlcNAc(b1-2)Man(a1-6)]Man(b1-4)GlcNAc(b1-4)GlcNAc
Summary of the method: as §1

[8] = target: Gal(b1-4)GlcNAc(b1-2)Man(a1-3)[Gal(b1-4)GlcNAc(b1-2)Man(a1-6)]Man(b1-4)GlcNAc(b1-4)[Fuc(a1-6)]GlcNAc
Summary of the method: as §1

[9] = target: Gal(b1-4)GlcNAc(b1-2)Man(a1-3)[Gal(b1-4)GlcNAc(b1-2)Man(a1-6)][GlcNAc(b1-4)]Man(b1-4)GlcNAc(b1-4)[Fuc(a1-6)]GlcNAc
Summary of the method: as §1

[10] = target: Gal(b1-4)GlcNAc(b1-2)Man(a1-3)[Man(a1-6)]Man(b1-4)GlcNAc(b1-4)GlcNAc
Summary of the method: as §1

[11] = target: Gal(b1-4)GlcNAc(b1-2)Man(a1-6)[GlcNAc(b1-2)Man(a1-3)]Man(b1-4)GlcNAc(b1-4)[Fuc(a1-6)]GlcNAc
Summary of the method: as §1

[12] = target: Gal(b1-4)GlcNAc(b1-2)Man(a1-6)[Man(a1-3)]Man(b1-4)GlcNAc(b1-4)GlcNAc
Summary of the method: as §1

[13] = target: Gal(b1-4)GlcNAc(b1-2)Man(a1-6)[Man(a1-3)]Man(b1-4)GlcNAc(b1-4)[Fuc(a1-6)]GlcNAc
Summary of the method: as §1

[14] = target: Gal(b1-4)GlcNAc(b1-2)[Gal(b1-4)GlcNAc(b1-4)]Man(a1-3)[Fuc(a1-3)[Gal(b1-4)]GlcNAc(b1-2)Man(a1-6)]Man(b1-4)GlcNAc(b1-4)GlcNAc
Summary of the method: as §1

[15] = target: Gal(b1-4)GlcNAc(b1-2)[Gal(b1-4)GlcNAc(b1-4)]Man(a1-3)[Gal(b1-4)GlcNAc(b1-2)Man(a1-6)]Man(b1-4)GlcNAc(b1-4)GlcNAc
Summary of the method: as §1

[16] = target: Gal(b1-4)GlcNAc(b1-2)[Gal(b1-4)GlcNAc(b1-4)]Man(a1-3)[Gal(b1-4)GlcNAc(b1-2)[Gal(b1-4)GlcNAc(b1-6)]Man(a1-6)]Man(b1-4)GlcNAc(b1-4)GlcNAc
Summary of the method: as §1

Gal(b1-4)GlcNAc(b1-3)Fuc = target: Gal(b1-4)GlcNAc(b1-3)Fuc
Summary of the method: as §1

[17] = target: Gal(b1-4)GlcNAc(b1-3)Gal(b1-4)Glc
Summary of the method: as §1

[18] = target: Gal(b1-4)GlcNAc(b1-3)Gal(b1-4)GlcNAc(b1-3)Gal(b1-4)Glc
Summary of the method: as §1

[19] = target: Gal(b1-4)GlcNAc(b1-3)[Fuc(a1-3)[Gal(b1-4)]GlcNAc(b1-6)]Gal(b1-4)Glc
Summary of the method: as §1

[20] = target: Gal(b1-4)GlcNAc(b1-3)[Gal(b1-4)GlcNAc(b1-6)]Gal(b1-4)Glc
Summary of the method: as §1

[21] = target: Gal(b1-4)GlcNAc(b1-3)[Gal(b1-4)GlcNAc(b1-6)]Gal(b1-4)GlcNAc(b1-3)Gal(b1-4)Glc
Summary of the method: as §1

[22] = target: Gal(b1-4)GlcNAc(b1-3)[Gal(b1-4)GlcNAc(b1-6)]Gal(b1-4)GlcNAc(b1-3)[Gal(b1-4)GlcNAc(b1-6)]Gal(b1-4)GlcNAc(b1-3)Gal(b1-4)Glc
Summary of the method: as §1

[23] = target: Gal(b1-4)GlcNAc(b1-3)[Gal(b1-4)GlcNAc(b1-6)]Gal(b1-4)GlcNAc(b1-3)[Gal(b1-4)GlcNAc(b1-6)]Gal(b1-4)GlcNAc(b1-3)[Gal(b1-4)GlcNAc(b1-6)]Gal(b1-4)GlcNAc(b1-3)Gal(b1-4)Glc
Summary of the method: as §1

[24] = target: Gal(b1-4)GlcNAc(b1-3)[Gal(b1-4)GlcNAc(b1-6)]Gal(b1-4)GlcNAc(b1-3)[Gal(b1-4)GlcNAc(b1-6)]Gal(b1-4)GlcNAc(b1-3)[Gal(b1-4)GlcNAc(b1-6)]Gal(b1-4)GlcNAc(b1-3)[Gal(b1-4)GlcNAc(b1-6)]Gal(b1-4)GlcNAc(b1-3)Gal(b1-4)Glc
Summary of the method: as §1

Gal(b1-6)GalNAc = target: Gal(b1-6)GalNAc
Summary of the method: as §1

[25] = target: Gal3S(b1-3)GalNAc(b1-4)Gal3S(b1-4)Glc
Summary of the method: as §1

[26] = target: Gal3S(b1-3)[Fuc(a1-4)]GlcNAc
Summary of the method: as §1

[27] = target: Gal3S(b1-3)[Fuc(a1-4)]GlcNAc(b1-3)Gal(b1-4)Glc
Summary of the method: as §1

Gal3S(b1-4)Glc = target: Gal3S(b1-4)Glc
Summary of the method: as §1

Gal3S(b1-4)GlcNAc = target: Gal3S(b1-4)GlcNAc
Summary of the method: as §1

[28] = target: Gal3S(b1-4)GlcNAc(b1-3)Gal
Summary of the method: as §1

[29] = target: Gal6S(b1-3)[Fuc(a1-4)]GlcNAc(b1-3)Gal(b1-4)Glc
Summary of the method: as §1

GalNAc(a1-3)Gal(b1-4)Glc = target: GalNAc(a1-3)Gal(b1-4)Glc
Summary of the method: as §1

GalNAc(a1-3)GalNAc = target: GalNAc(a1-3)GalNAc
Summary of the method: as §1

GalNAc(b1-4)Gal(b1-4)Glc = target: GalNAc(b1-4)Gal(b1-4)Glc
Summary of the method: as §1

[30] = target: GalNAc(b1-4)Gal3S(b1-4)Glc
Summary of the method: as §1

[31] = target: GalNAc(b1-4)[Neu5Ac(a2-6)]Gal(b1-4)Glc
Summary of the method: as §1

[32] = target: GalNAc3S(b1-4)Gal3S(b1-4)Glc
Summary of the method: as §1

Glc(a1-2)Glc = target: Glc(a1-2)Glc
Summary of the method: as §1

[33] = target: Glc(a1-2)Glc(a1-3)Glc(a1-3)Man(a1-2)Man(a1-2)Man(a1-3)[Man(a1-3)[Man(a1-6)]Man(a1-6)]Man(b1-4)GlcNAc
Summary of the method: as §1

Glc(a1-3)Glc = target: Glc(a1-3)Glc
Summary of the method: as §1

[34] = target: Glc(a1-3)Glc(a1-3)Man(a1-2)Man(a1-2)Man(a1-3)[Man(a1-2)Man(a1-3)[Man(a1-2)Man(a1-6)]Man(a1-6)]Man(b1-4)GlcNAc(b1-4)GlcNAc
Summary of the method: as §1

B1: HysACBM (Streptococcus pneumoniae), Q54873 (protein)
chain: KNLVENGDFGQTEDGSSPWTGSKAQGWSAWVDQKNSADASTRVIEAKDGAITISSHEKLRAALHRMVPIEAKKKYKLRFKIKTDNKIGIAKVRIIEESGKDKRLWNSATTSGTKDWQTIEADYSPTLDVDKIKLELFYETGTGTVSFKDIELVEVADQLS
glycan array binding signal (z-score) [1]: -0.091 | glycan array binding signal (z-score) [2]: -0.091 | glycan array binding signal (z-score) [3]: -0.004 | glycan array binding signal (z-score) [4]: -0.091 | glycan array binding signal (z-score) [5]: -0.091 | glycan array binding signal (z-score) [6]: -0.091 | glycan array binding signal (z-score) (Gal(b1-4)Glc): 0.045 | glycan array binding signal (z-score) (Gal(b1-4)GlcNAc): -0.058 | glycan array binding signal (z-score) [7]: -0.091 | glycan array binding signal (z-score) [8]: -0.091 | glycan array binding signal (z-score) [9]: -0.091 | glycan array binding signal (z-score) [10]: -0.03 | glycan array binding signal (z-score) [11]: -0.091 | glycan array binding signal (z-score) [12]: -0.091 | glycan array binding signal (z-score) [13]: -0.007 | glycan array binding signal (z-score) [14]: 0.063 | glycan array binding signal (z-score) [15]: -0.091 | glycan array binding signal (z-score) [16]: 0.105 | glycan array binding signal (z-score) (Gal(b1-4)GlcNAc(b1-3)Fuc): 0.281 | glycan array binding signal (z-score) [17]: -0.091 | glycan array binding signal (z-score) [18]: -0.091 | glycan array binding signal (z-score) [19]: -0.091 | glycan array binding signal (z-score) [20]: 0.137 | glycan array binding signal (z-score) [21]: -0.091 | glycan array binding signal (z-score) [22]: -0.091 | glycan array binding signal (z-score) [23]: 0.258 | glycan array binding signal (z-score) [24]: -0.091 | glycan array binding signal (z-score) (Gal(b1-6)GalNAc): -0.064 | glycan array binding signal (z-score) [25]: -0.091 | glycan array binding signal (z-score) [26]: -0.076 | glycan array binding signal (z-score) [27]: 0.18 | glycan array binding signal (z-score) (Gal3S(b1-4)Glc): -0.039 | glycan array binding signal (z-score) (Gal3S(b1-4)GlcNAc): -0.091 | glycan array binding signal (z-score) [28]: 0.169 | glycan array binding signal (z-score) [29]: -0.084 | glycan array binding signal (z-score) (GalNAc(a1-3)Gal(b1-4)Glc): 0.154 | glycan array binding signal (z-score) (GalNAc(a1-3)GalNAc): -0.091 | glycan array binding signal (z-score) (GalNAc(b1-4)Gal(b1-4)Glc): 0.321 | glycan array binding signal (z-score) [30]: -0.076 | glycan array binding signal (z-score) [31]: -0.091 | glycan array binding signal (z-score) [32]: -0.091 | glycan array binding signal (z-score) (Glc(a1-2)Glc): -0.091 | glycan array binding signal (z-score) [33]: -0.091 | glycan array binding signal (z-score) (Glc(a1-3)Glc): -0.091 | glycan array binding signal (z-score) [34]: -0.091
